Earlier results as cited in publication PMC13415951 (Journal of Experimental Botany, 2026).

Conditions: ref PubChem (https://pubchem.ncbi.nlm.nih.gov/, accessed September 2025); cited from earlier work

For `CC1=C[C@H]2O[C@@H]3[C@H](O)C[C@](C)([C@@]2(CO)[C@H](O)C1=O)[C@]31CO1` [DON, deoxynivalenol], the XLogP3-AA is given as “–0.7”.

In the case of `CC1(C)CCC[C@]2(C)[C@@H]3[C@H]1[C@@H](O)[C@@]2(C)C[C@H]3O` [CUL, culmorin], the XLogP3-AA is given as 3.3.
